Several values for one entry are separate records, joined by “and”; a condition that tells them apart may be missing. Equal values may be shown once. Further values from the same series stand in other lists. Inconclusive results and toxic doses are left out.
System: CD2F1 mice, L1210 leukemia ip, survival T/C
Test: NCI In Vivo Anticancer Drug Screen. Data for tumor model L1210 Leukemia (intraperitoneal) in CD2F1 (CDF1) mice
Details: higher = longer survival
Outline: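 Antitumor effect is scored in animals hosting a serially transplanted tumor. Values compare compound-dosed animals against vehicle-only controls as a simple quotient.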

## Nc1ncn(C2OC(CO)C(O)C2O)c(=O)n1 (stereo not given)
endpoint: mean survival time, dose: 100.0 mg/kg/injection, schedule: Q01DX001 (ip), vehicle: saline
  T/C: 161 % of control and 169 % of control
endpoint: median survival time, dose: 0.16 mg/kg/injection, schedule: Q01DX009 (ip), vehicle: saline
  T/C: 117 % of control
endpoint: median survival time, dose: 0.31 mg/kg/injection, schedule: Q01DX009 (ip), vehicle: saline
  T/C: 123 % of control
endpoint: median survival time, dose: 0.38 mg/kg/injection, schedule: Q01DX009 (ip), vehicle: saline
  T/C: 151 % of control
endpoint: median survival time, dose: 0.5 mg/kg/injection, schedule: Q01DX009 (ip), vehicle: saline
  T/C: 156 % of control
endpoint: median survival time, dose: 0.75 mg/kg/injection, schedule: Q01DX009 (ip), vehicle: saline
  T/C: 158 % of control and 175 % of control
endpoint: median survival time, dose: 0.94 mg/kg/injection, schedule: Q04DX003 (ip), vehicle: saline
  T/C: 111 % of control
endpoint: median survival time, dose: 1.0 mg/kg/injection, schedule: Q01DX009 (ip), vehicle: saline
  T/C: 168 % of control and 181 % of control
endpoint: median survival time, dose: 1.0 mg/kg/injection, schedule: Q01DX009 (oral), vehicle: saline
  T/C: 100 % of control
endpoint: median survival time, dose: 1.0 mg/kg/injection, schedule: Q04DX003 (ip), vehicle: saline
  T/C: 114 % of control
endpoint: median survival time, dose: 1.25 mg/kg/injection, schedule: Q01DX009 (ip), vehicle: saline
  T/C: 162 % of control
endpoint: median survival time, dose: 1.5 mg/kg/injection, schedule: Q01DX009 (ip), vehicle: clinical formulation
  T/C: 214 % of control
endpoint: median survival time, dose: 1.5 mg/kg/injection, schedule: Q01DX009 (ip), vehicle: saline
  T/C: 192 % of control and 202 % of control and 212 % of control
endpoint: median survival time, dose: 1.88 mg/kg/injection, schedule: Q04DX003 (ip), vehicle: saline
  T/C: 117 % of control
endpoint: median survival time, dose: 2.0 mg/kg/injection, schedule: Q01DX005 (ip), vehicle: saline
  T/C: 195 % of control
endpoint: median survival time, dose: 2.0 mg/kg/injection, schedule: Q01DX009 (ip), vehicle: saline
  T/C: 207 % of control and 244 % of control
endpoint: median survival time, dose: 2.0 mg/kg/injection, schedule: Q04DX003 (ip), vehicle: saline
  T/C: 118 % of control
endpoint: median survival time, dose: 2.5 mg/kg/injection, schedule: Q01DX009 (ip), vehicle: saline
  T/C: 262 % of control
endpoint: median survival time, dose: 3.0 mg/kg/injection, schedule: Q01DX009 (ip), vehicle: clinical formulation
  T/C: 111 % of control
endpoint: median survival time, dose: 3.0 mg/kg/injection, schedule: Q01DX009 (ip), vehicle: saline
  T/C: 118 % of control and 239 % of control and 291 % of control
endpoint: median survival time, dose: 4.0 mg/kg/injection, schedule: Q01DX005 (ip), vehicle: saline
  T/C: 269 % of control
endpoint: median survival time, dose: 4.0 mg/kg/injection, schedule: Q01DX009 (ip), vehicle: saline
  T/C: 280 % of control and 310 % of control
endpoint: median survival time, dose: 4.6 mg/kg/injection, schedule: Q03HX024 (ip), vehicle: DMSO
  T/C: 731 % of control
endpoint: median survival time, dose: 5.0 mg/kg/injection, schedule: Q01DX009 (ip), vehicle: saline
  T/C: 212 % of control
endpoint: median survival time, dose: 5.18 mg/kg/injection, schedule: Q04DX002 (ip), vehicle: saline
  T/C: 164 % of control
endpoint: median survival time, dose: 6.0 mg/kg/injection, schedule: Q01DX009 (ip), vehicle: saline
  T/C: 258 % of control
endpoint: median survival time, dose: 6.0 mg/kg/injection, schedule: Q03HX024 (ip), vehicle: saline
  T/C: 696 % of control
endpoint: median survival time, dose: 7.5 mg/kg/injection, schedule: Q04DX003 (ip), vehicle: saline
  T/C: 158 % of control
endpoint: median survival time, dose: 8.0 mg/kg/injection, schedule: Q01DX005 (ip), vehicle: saline
  T/C: 294 % of control
endpoint: median survival time, dose: 8.0 mg/kg/injection, schedule: Q01DX009 (ip), vehicle: saline
  T/C: 120 % of control
endpoint: median survival time, dose: 8.0 mg/kg/injection, schedule: Q01DX009 (oral), vehicle: saline
  T/C: 156 % of control
endpoint: median survival time, dose: 8.0 mg/kg/injection, schedule: Q04DX003 (ip), vehicle: saline
  T/C: 179 % of control
endpoint: median survival time, dose: 8.64 mg/kg/injection, schedule: Q04DX002 (ip), vehicle: saline
  T/C: 185 % of control
endpoint: median survival time, dose: 9.0 mg/kg/injection, schedule: Q03HX024 (ip), vehicle: saline
  T/C: 695 % of control
endpoint: median survival time, dose: 9.3 mg/kg/injection, schedule: Q03HX024 (ip), vehicle: DMSO
  T/C: 731 % of control
endpoint: median survival time, dose: 10.0 mg/kg/injection, schedule: Q01DX009 (ip), vehicle: saline
  T/C: 107 % of control
endpoint: median survival time, dose: 13.0 mg/kg/injection, schedule: Q03HX024 (ip), vehicle: saline
  T/C: 695 % of control
endpoint: median survival time, dose: 14.4 mg/kg/injection, schedule: Q04DX002 (ip), vehicle: saline
  T/C: 211 % of control
endpoint: median survival time, dose: 15.0 mg/kg/injection, schedule: Q04DX003 (ip), vehicle: saline
  T/C: 198 % of control
endpoint: median survival time, dose: 16.0 mg/kg/injection, schedule: Q01DX005 (ip), vehicle: saline
  T/C: 98 % of control and 107 % of control
endpoint: median survival time, dose: 16.0 mg/kg/injection, schedule: Q01DX009 (ip), vehicle: saline
  T/C: 95 % of control
endpoint: median survival time, dose: 16.0 mg/kg/injection, schedule: Q01DX009 (oral), vehicle: saline
  T/C: 210 % of control
endpoint: median survival time, dose: 16.0 mg/kg/injection, schedule: Q04DX003 (ip), vehicle: saline
  T/C: 215 % of control
endpoint: median survival time, dose: 18.7 mg/kg/injection, schedule: Q03HX024 (ip), vehicle: DMSO
  T/C: 731 % of control
endpoint: median survival time, dose: 20.0 mg/kg/injection, schedule: Q03HX024 (ip), vehicle: saline
  T/C: 696 % of control
endpoint: median survival time, dose: 24.0 mg/kg/injection, schedule: Q04DX002 (ip), vehicle: saline
  T/C: 215 % of control
endpoint: median survival time, dose: 30.0 mg/kg/injection, schedule: Q03HX024 (ip), vehicle: saline
  T/C: 695 % of control
endpoint: median survival time, dose: 30.0 mg/kg/injection, schedule: Q04DX003 (ip), vehicle: saline
  T/C: 172 % of control
endpoint: median survival time, dose: 32.0 mg/kg/injection, schedule: Q01DX009 (oral), vehicle: saline
  T/C: 106 % of control
endpoint: median survival time, dose: 40.0 mg/kg/injection, schedule: Q04DX002 (ip), vehicle: saline
  T/C: 122 % of control
endpoint: median survival time, dose: 75.0 mg/kg/injection, schedule: Q03HX024 (ip), vehicle: DMSO
  T/C: 108 % of control
endpoint: median survival time, dose: 150.0 mg/kg/injection, schedule: Q01DX009 (ip), vehicle: saline
  T/C: 510 % of control
endpoint: median survival time, dose: 150.0 mg/kg/injection, schedule: Q03HX024 (ip), vehicle: DMSO
  T/C: 93 % of control
endpoint: median survival time, dose: 720.0 mg/kg/injection, schedule: Q01DX005 (ip), vehicle: DMSO
  T/C: 107 % of control
endpoint: median survival time, dose: 800.0 mg/kg/injection, schedule: Q01DX009 (oral), vehicle: DMSO
  T/C: 101 % of control
